Experimental data: the antibiotic and cytotoxicity screens of Wong et al. (2023)
The list shows a part of the results.

Tests used:
HSkMC = human skeletal muscle cells; assay: cytotoxicity call (relative viability < 0.9); details: 10 µM
HepG2 = assay: cytotoxicity call (relative viability < 0.9); details: 10 µM
S. aureus RN4220 = assay: growth inhibition call (relative growth <= 0.2); details: 50 µM

COc1cc(OC)c2c(OC)c(-c3ccc4c(c3)OCO4)c(=O)oc2c1
inactive: cytotoxicity call (HSkMC) | cytotoxicity call (HepG2) | growth inhibition call (S. aureus RN4220)

COC(=O)[C@@]12CC[C@@H](C)[C@@H](C)[C@@H]1C1=CC[C@H]3[C@@]4(C)CC[C@@H](OC(C)=O)C(C)(C)[C@@H]4CC[C@@]3(C)[C@@]1(C)CC2
inactive: cytotoxicity call (HSkMC) | cytotoxicity call (HepG2) | growth inhibition call (S. aureus RN4220)

Cc1noc(C)c1NC(=O)N(C)C[C@H]1Oc2ccc(NS(=O)(=O)c3cn(C)cn3)cc2C(=O)N([C@H](C)CO)C[C@@H]1C
inactive: cytotoxicity call (HSkMC) | cytotoxicity call (HepG2) | growth inhibition call (S. aureus RN4220)

C[C@@H]1CN([C@H](C)CO)C(=O)c2cc(NS(=O)(=O)c3cn(C)cn3)ccc2O[C@H]1CN(C)S(=O)(=O)c1ccc(F)cc1
inactive: cytotoxicity call (HSkMC) | cytotoxicity call (HepG2) | growth inhibition call (S. aureus RN4220)

O=C(C[C@@H]1CC=CCC[C@@H](Cc2ccc(F)cc2)C(=O)OC[C@@H](Cc2c[nH]c3ccccc23)NC1=O)N[C@@H](CO)Cc1ccccc1
inactive: cytotoxicity call (HSkMC) | cytotoxicity call (HepG2) | growth inhibition call (S. aureus RN4220)

O=C(NCC[C@@H]1CC[C@H](NS(=O)(=O)c2cccc(F)c2)[C@@H](CO)O1)C1CC1
inactive: cytotoxicity call (HSkMC) | cytotoxicity call (HepG2) | growth inhibition call (S. aureus RN4220)

CN1CCN(C(=O)C[C@H]2C=C[C@@H](NC(=O)Nc3ccccc3F)[C@@H](CO)O2)CC1
inactive: cytotoxicity call (HSkMC) | cytotoxicity call (HepG2) | growth inhibition call (S. aureus RN4220)

Cc1noc(C)c1NC(=O)N(C)C[C@@H]1Oc2c(NS(C)(=O)=O)cccc2C(=O)N([C@H](C)CO)C[C@H]1C
inactive: cytotoxicity call (HSkMC) | cytotoxicity call (HepG2) | growth inhibition call (S. aureus RN4220)
